PubChem BioAssay (NCATS)
Values joined by “and” are separate entries in the source; they are usually repeats but may differ in a detail not shown here. Equal values may be shown once. The inconclusive results got no clear call from the source; some entries with a clear call stand among them for comparison. For some of these results: A potency beside an inconclusive call is a rough fit, not a confirmed value. Active and inactive are the calls of the source. Calls follow the shape of the dose curve; as a rule, active = well fitted curve in the direction sought with a large enough effect; inconclusive = small, poorly fitted or top-dose-only effect, or another doubt; inactive = no such curve, though single readings can be large; an effect the other way counts as inactive or inconclusive.

Columns and labels:
[1] = Viability qHTS for spleen associated tyrosine kinase inhibitor (SYKi) naive MV4-11 cells (AID 1963823); details: MV4-11 AML viability, CellTiter-Glo luminescence, 72 h; series mostly up to 45 µM; also: nearly all actives have a fitted effect of over 40% in size; also: potency is read from the fitted curve at half-maximal effect
Procedure, shortened: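 Read-out: CellTiter-Glo luminescence. Exposure: 72 hr, 37 C, 5% CO2, 95% humidity. Cells: MV4-11 without SYK inhibitor history, 500/well, qHTS format.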

[2] = Viability qHTS for spleen associated tyrosine kinase inhibitor (SYKi) drug resistant MV4-11 cells (AID 1963824); details: SYKi-resistant MV4-11 viability, CellTiter-Glo, 72 h; series mostly up to 45 µM; also: nearly all actives have a fitted effect of over 35% in size; also: potency is read from the fitted curve at half-maximal effect
Procedure, shortened: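 CellTiter-Glo luminescence, read 10 min after reagent addition, reports viability after a 72 hr compound exposure. Cells are an MV4-11 line made resistant to SYK inhibition, seeded at 500 per well onto compound-containing plates.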

[3] = Quantitative highthroughput screen to assess conditional lethalithy of NOMO1 cells grown in RPMI1640 with untreated serum (RPMI+s) (AID 1963876); details: NOMO1 AML cells in RPMI+serum, CellTiter-Glo viability, 48 h; viability: at 45.8 µM (top of the series); also: nearly all actives have a fitted effect of over 35% in size; also: potency is read from the fitted curve at half-maximal effect
Procedure, shortened: (§1)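 Each medium arm—HPLM with 10% dialyzed FBS, or RPMI1640 with 5 mM glucose and 10% untreated or dialyzed FBS—was screened against an 11-point, 3-fold compound titration for 48 h at 37 °C, with CellTiter-Glo luminescence as endpoint.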

[4] = Quantitative highthroughput screen to assess conditional lethalithy of NOMO1 cells grown in RPMI1640 with dialyzed fetal bovine serum (RPMI+ds) (AID 1963877); details: NOMO1 in RPMI+dialyzed FBS viability, ATP luminescence, 48 h; series mostly up to 45.8 µM; also: nearly all actives have a fitted effect of over 30% in size
Procedure, shortened: as §1

[5] = Quantitative highthroughput screen to assess conditional lethalithy of SEM cells grown in Human Plasma-Like Medium with dialyzed fetal bovine serum (HPLM+ds) (AID 1963882); details: SEM B-ALL cells in HPLM+ds, CellTiter-Glo viability, 48 h; series mostly up to 45.8 µM; also: nearly all actives have a fitted effect of over 35% in size; also: potency is read from the fitted curve at half-maximal effect
Procedure, shortened: as §1

[6] = Cellular viability qHTS for adrenocortical cancer (ACC) cell line SW-13 (AID 1963989); details: SW-13 ACC cells viability, CellTiter-Glo, 48 h; activity (max response): stronger effect = lower value; also: potency is read from the fitted curve at half-maximal effect; nearly all actives have a fitted effect of over 65% in size
Procedure, shortened: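 SW-13 cells in ITS-supplemented serum-free DMEM were plated overnight, then exposed for 48 h at 37C to compound titrations (up to 46 uM final). Viability was read by CellTiter-Glo luminescence; four-parameter logistic fits gave IC50 and efficacy.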

[7] = Quantitative highthroughput screen to assess conditional lethalithy of NOMO1 cells grown in Human Plasma-Like Medium with dialyzed fetal bovine serum (HPLM+ds) (AID 1963878); details: NOMO1 AML cells in HPLM+ds, CellTiter-Glo viability, 48 h; viability: at 45.8 µM (top of the series); also: nearly all actives have a fitted effect of over 35% in size; also: potency is read from the fitted curve at half-maximal effect
Procedure, shortened: as §1

[8] = Quantitative highthroughput screen to assess conditional lethalithy of P12 Ichikawa cells grown in RPMI1640 with dialyzed fetal bovine serum (RPMI+ds) (AID 1963880); details: ATP luminescence, 48 h; Potency: P12-Ichikawa viability; series mostly up to 45.8 µM; also: nearly all actives have a fitted effect of over 35% in size; also: potency is read from the fitted curve at half-maximal effect
Procedure, shortened: as §1

[9] = Quantitative highthroughput screen to assess conditional lethalithy of P12 Ichikawa cells grown in RPMI1640 with untreated serum (RPMI+s) (AID 1963881); details: ATP luminescence, 48 h; Potency: viability; series mostly up to 45.8 µM; also: nearly all actives have a fitted effect of over 35% in size; also: potency is read from the fitted curve at half-maximal effect
Procedure, shortened: as §1

[10] = Quantitative highthroughput screen to assess conditional lethalithy of SEM cells grown in RPMI1640 with unreated serum (RPMI+s) (AID 1963883); details: SEM B-ALL cells, CellTiter-Glo viability, 48 h; viability: at 45.8 µM (top of the series)
Procedure, shortened: as §1

[11] = Quantitative highthroughput screen to assess conditional lethalithy of SEM cells grown in RPMI1640 with dialyzed fetal bovine serum (RPMI+ds) (AID 1963884); details: SEM B-ALL cells, RPMI+dialyzed FBS, CellTiter-Glo viability, 48 h; viability: at 45.8 µM (top of the series)
Procedure, shortened: as §1

[12] = Cellular viability qHTS for adrenocortical cancer (ACC) cell line NCI-H295R (AID 1963990); details: CellTiter-Glo ATP luminescence, 48 h; series mostly up to 46.1 µM; also: nearly all actives have a fitted effect of over 60% in size; also: potency is read from the fitted curve at half-maximal effect
Procedure, shortened: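 Luminescent ATP read-out (CellTiter-Glo, 20 min RT) after 48 h drug exposure of NCI-H295R cells; a titration up to 46 uM final. Data normalized to doxorubicin (100% inhibition) and DMSO (0%); 4-parameter fit gives IC50, max response.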

[13] = Quantitative highthroughput screen to assess conditional lethalithy of P12 Ichikawa cells grown in Human Plasma-Like Medium with dialyzed fetal bovine serum (HPLM+ds) (AID 1963879); details: ATP luminescence, 48 h; Potency: viability; series mostly up to 45.8 µM
Procedure, shortened: as §1
Tags tell the direction and shape of the fitted curve.

SMILES	Potency [1]	Potency [2]	Potency [3]	Potency [4]	Potency [5]	Potency [6]	Potency [7]	Potency [8]	Potency [9]	Potency [10]	Potency [11]	Potency [12]	Potency [13]
Clc1cccc(-n2nnnc2NCc2ccccc2Oc2ccccn2)c1Cl	inconclusive: 16.4 µM [cytotoxic, partial curve]	inconclusive: 18.4 µM [cytotoxic, partial curve]	inactive	inactive	inactive	inconclusive: 25.1 µM [cytotoxic, single point]	–	–	–	–	–	–	–
CC(Oc1ccc(O)cc1)(P(=O)(O)O)P(=O)(O)O	inactive	inactive	inconclusive: 26.4 µM [cytotoxic, single point]	–	inconclusive: 18.7 µM [cytotoxic, partial curve]	–	active: 13.2 µM	inconclusive: 11.8 µM [cytotoxic, full curve]	inconclusive: 10.5 µM [cytotoxic, full curve]	inconclusive: 10.5 µM [cytotoxic, partial curve]	inconclusive: 14.8 µM [cytotoxic, partial curve]	–	–
CC1Cc2ccccc2N1NC(=O)c1ccc(Cl)c(S(N)(=O)=O)c1 (stereo not given)	inactive	inactive and inconclusive: 18.6 µM [cytotoxic, partial curve, poor fit]	inactive	–	inactive	–	inactive	inactive	inactive	–	–	inactive	–
Cc1cc2nc3c(=O)[nH]c(=O)nc-3n(CC(O)C(O)C(O)CO)c2cc1C (stereo not given)	inactive	inconclusive: 20.9 µM [cytotoxic, partial curve, poor fit]	inactive	–	inactive	–	inconclusive: 7.43 µM [cytotoxic, partial curve, poor fit]	inactive	–	–	–	–	–
COc1cc(F)c(F)c(Nc2ccc(I)cc2F)c1NS(=O)(=O)C1(C[C@H](O)CO)CC1	inconclusive: 461 nM [cytotoxic, full curve] and active: 332 nM	inconclusive: 0.461 µM [cytotoxic, full curve]	inactive	–	inconclusive: 37.2 µM [cytotoxic, single point]	–	inconclusive: 26.4 µM [cytotoxic, single point]	–	–	active: 20.9 µM	inconclusive: 33.2 µM [cytotoxic, single point]	active: 20 µM	inconclusive: 23.5 µM [cytotoxic, partial curve]
COc1cc2c(N3CCN(C(=O)Nc4ccc(OC(C)C)cc4)CC3)ncnc2cc1OCCCN1CCCCC1	inconclusive: 376 nM [cytotoxic, full curve] and active: 231 nM and active: 235 nM	inconclusive: 0.422 µM [cytotoxic, full curve]	inconclusive: 10.5 µM [cytotoxic, single point]	–	inconclusive: 0.0743 µM [cytotoxic, full curve]	inconclusive: 18.4 µM [cytotoxic, single point] and inconclusive: 31.6 µM [cytotoxic, single point]	inconclusive: 10.5 µM [cytotoxic, full curve]	–	inconclusive: 8.33 µM [cytotoxic, full curve]	–	–	inconclusive: 29.1 µM [cytotoxic, single point]	inconclusive: 13.2 µM [cytotoxic, partial curve]
O=c1ncn2nc(Sc3ccc(F)cc3F)ccc2c1-c1c(Cl)cccc1Cl	inconclusive: 11.6 µM [cytotoxic, partial curve]	active: 8.2 µM	inconclusive: 37.2 µM [cytotoxic, single point]	–	inconclusive: 20.9 µM [cytotoxic, partial curve]	–	inconclusive: 23.5 µM [cytotoxic, single point]	inconclusive: 20.9 µM [cytotoxic, partial curve]	inconclusive: 18.7 µM [cytotoxic, partial curve]	active: 16.6 µM	inconclusive: 20.9 µM [cytotoxic, partial curve]	inactive	inconclusive: 23.5 µM [cytotoxic, partial curve]
NC(=O)N1CCC(CC(=O)N2CCC([C@H]3c4ncc(Br)cc4CCc4cc(Cl)cc(Br)c43)CC2)CC1	active: 5.9 µM	active: 4.17 µM	inconclusive: 18.7 µM [cytotoxic, partial curve]	–	inconclusive: 0.526 µM [cytotoxic, full curve]	inconclusive: 28.2 µM [cytotoxic, partial curve, poor fit]	inconclusive: 20.9 µM [cytotoxic, partial curve]	inconclusive: 18.7 µM [cytotoxic, partial curve]	inconclusive: 6.62 µM [cytotoxic, partial curve]	inconclusive: 1.18 µM [cytotoxic, full curve]	inconclusive: 14.8 µM [cytotoxic, partial curve]	inconclusive: 28.2 µM [cytotoxic, partial curve, poor fit]	inconclusive: 5.9 µM [cytotoxic, partial curve]
